From ChEMBL document CHEMBL4888484, “Replenishing the malaria drug discovery pipeline: Screening and hit evaluation of the MMV Hit Generation Library 1 (HGL1) against asexual blood stage Plasmodium falciparum ,using a nano luciferase reporter read-out” (2022)
About 410 (8.5%) of roughly 4,800 compounds showed an effect of 50% or more. This is one part of the list.

System: Plasmodium falciparum
Assay: Confirmatory screen in NF54 pLDH assay, in single point, at 2uM, 72h
Assay type: functional, Erythrocyte
Conditions: timepoint 72 hour

Point of comparison: Cc1cc(NC(=O)c2cccc(S(=O)(=O)NC3CC3)c2)no1, “% Inhibition” value -23%. Against it:
- CC(C)OC(=O)N1C(=O)c2ccccc2NC1(C(F)(F)F)C(F)(F)F — higher, -14%
- CC(=O)C1(C(C)=O)[C@H](c2ccc(F)cc2)C1(C#N)C#N — lower, -24%
- COc1ccc(-n2ncc3c(NCCNC(=O)c4ccccc4Cl)nc(C)nc32)cc1 — lower, -27%
- CN1CCC(NCC[C@@H](Cc2ccccc2Cl)c2ccc(Cl)cc2)CC1 — higher, 92%
- O=C1NCCCc2nn(Cc3cc(F)ccc3Br)cc21 — higher, -19%
- Nc1c(-c2nc3ccccc3[nH]2)c2nc3ccccc3nc2n1Cc1ccccc1F — higher, 62%
- CCCCCC(=O)Nc1ccccc1Cl — higher, 10%
- Cc1nn(C)c(C)c1S(=O)(=O)Nc1ncc(C(C)C)s1 — higher, 10%
- CC1(CCCCNC(=O)N2CC[C@H](S(C)(=O)=O)C2)OCCO1 — higher, 6%
- Cc1nccn1[C@H]1[C@@H]2OC[C@@H](O2)[C@@H](NCc2ccncc2Cl)[C@@H]1O — higher, 5%
- O=C(c1cccc(O)c1)N1CCC(OCc2ccccc2F)CC1 — higher, 8%
- O=C(Nc1ncn(C[C@@H](COC(=O)c2ccc(F)cc2)OC(=O)c2ccc(F)cc2)c2ncnc1-2)c1ccc(F)cc1 — higher, -10%
- CCCOC(=O)c1cc(NC(=O)c2ccc3ccccc3c2)ccc1N1CCOCC1 — higher, -11%
- CCN(c1ccc(C(=O)Nc2cnc3[nH]nc(C)c3c2)cn1)C(C)C — higher, 14%
- O=C(c1ccccc1F)N(Cc1nccn1Cc1ccccc1F)CC1CC1 — higher, -7%
- Cc1ccc(C(=O)Nc2ccc(N3CCN(c4c(F)c(F)c(F)c(F)c4F)CC3)cc2)c(Cl)c1 — higher, 8%
- CC1(C)Oc2ccc(NC(=O)COc3ccccc3)cc2NC1=O — higher, 12%
- O=C(Cn1cnc2ccc(Cl)cc2c1=O)NCc1ccc2c(c1)OCO2 — higher, -5%
- CC(C)(C)[C@H](Cn1cccn1)NC(=O)Cn1nc(C(F)F)c2c1CCC2 — higher, -5%
- CN(c1ccc2nnnn2n1)C1CCCCC1 — higher, 7%
- Cn1ccnc(NC(=O)N(Cc2c(F)cccc2F)C2CC2)c1=O — higher, -12%
- COc1cncc(C(=O)N2CCCc3cc(S(C)(=O)=O)ccc32)n1 — higher, 10%
- Cc1n[nH]cc1Nc1ccnc(C(C)(C)C)n1 — higher, 7%
- C[C@H](Oc1ccccc1Cl)/C(N)=N\O — higher, 6%
- Cc1ccc(-c2cn3c4ccccc4nc3n2CCN2CCN(C)CC2)cc1 — higher, 4%
- N=C(Cc1ccccc1)NOC(=O)c1cccc2ccccc12 — higher, -7%
- CCOC(=O)[C@@H](N1CCCC1=O)n1c(=O)[nH]cc(C)c1=O — higher, -15%
